Experiments:
[1] = test system: Plasmodium berghei ANKA (PbA)-induced experimental cerebral malaria; experiment: Survival of mice infected with PbA (Kaplan Meier, log rank test); assay type: in vivo
Excerpt: Cryopreserved Plasmodium berghei ANKA (PbA; MR4, Manassas, Va.) was passaged through naïve C57Bl/6 mice. For the experiment, infection was initiated in C57Bl/6 and BALB/c mice by intraperitoneal (ip) injection of 1×10^6 freshly-isolated parasitized erythrocytes (PE) obtained from donor passage mice. Parasitemia was monitored by thin-blood smear stained with modified Geimsa stain (Protocol Hema3 Stain Set, Sigma, Oakville, ON) by counting at least 1500 erythrocytes. The infected mice were monitored for survival, neurological impairment, vascular leakage, parasite burden, and levels of angiogenic factors and markers of endothelial activation.
(§1) Post-infection survival of mice was plotted as Kaplan Meier curves using a log rank test for comparison. Quantitative assessment of ECM-associated neurological impairment (impaired coordination and motor performance) was performed daily using the 10 parameter Rapid Murine Coma and Behavioral Score (RMCBS), as previously described by Carroll R W, et al. 2010 in PLoS ONE 5: e13124. Signs of ECM include impaired balance/coordination, motor impairment (ataxia, hemiplegia/paraplegia), loss of reflexes and self-preservation, lack of hygiene-related behavior (grooming) and/or fitting. For each parameter, a score was assigned from 0 to 2, with 0 indicating the lowest function and a score of 2 the highest. Total scores for each mouse were calculated and provided as a percentage of the total possible score. Mice with a score of 35% or less were deemed to have severe ECM.
Statistical analysis was performed using GraphPad Prism version 4.00 (San Diego, Calif.). Post-infection survival of mice was plotted as Kaplan Meier curves and assessed using log-rank test. Survival studies were conducted in triplicate and data pooled unless otherwise specified. Shapiro-Wilk test was used to determine normally distributed data and comparisons between groups were assessed using the non-parametric Mann-Whitney test or Kruskal-Wallis test followed by Dunn's post-hoc. Two-way ANOVA was used to compare between groups over multiple time-points. […]

[2] = test system: Plasmodium berghei ANKA (PbA)-induced experimental cerebral malaria; experiment: Neurological impairment by Rapid Murine Coma and Behavioral Score (RMCBS); assay type: in vivo; details: C57Bl/6 mice, 25 mg/kg sc on Day 4 and Day 6 (Example 3, FIG. 17)
Experimental: as §1

[3] = test system: Plasmodium berghei ANKA (PbA)-induced experimental cerebral malaria; experiment: Evans Blue permeability assay in brain (blood brain barrier integrity); assay type: in vivo, mice
Experimental: Vascular permeability in the brain was assessed using Evans blue (EB) dye. Mice were intravenously injected via tail vein with 0.1 mL of 1% Evans blue dye solution (Evans Blue powder; Sigma-Aldrich in PBS, filter sterilized) when clinical signs of ECM were observed. Mice were euthanized with isoflurane (99.9% inhalational anesthetic) after 1 hour, perfused with 50 mL of PBS (1×). Brains were dissected aseptically, weighed, photographed and placed in 1 mL N, N-dimethylformamide for 48 hours at room temperature to extract dye from tissue. Absorbance was measured at 620 nm. The concentration was calculated using a standard curve of EB dye and expressed as ng dye per gram of brain tissue.

sICAM-1/CD54 = experiment: Soluble ICAM-1 plasma level by ELISA in PbA-infected mice; assay type: in vivo; details: C57Bl/6 mice, day 6 post-infection, p<0.05 (FIG. 19c)
Experimental: (§2) Peripheral whole blood was collected by saphenous venipuncture on day 0 (d 0; prior to PbA infection) and d 6 p.i. into heparinized tubes (Starstedt). Plasma was isolated from whole blood samples by centrifugation at 1000×g for 15 min. Plasma samples were aliquoted and stored at −80° C. until analyzed. Levels of mouse intercellular adhesion molecule-1 (sICAM-1/CD54), E-Selectin (sE-Sel/CD62E) and Vascular Cell Adhesion Molecule-1 (sVCAM-1/CD106) in their soluble forms were determined in plasma using commercially available murine ELISA kits (R&D Systems, Minneapolis, USA), according to the manufacturers protocol. Levels of von Willebrand Factor antigen (vWF:Ag) was measured in serum by ELISA as follows: 96-well MaxiSorp plates (Nunc) were coated overnight at 4° C. with a polyclonal antibody anti-human vWF (1:600, Dako, Glostrup, Denmark) in 0.01M PBS. Mouse serum was plated in 1% BSA-PBS and bound vWF:Ag was detected with horseradish peroxidase (HRP)-conjugated polyclonal antibody anti-human vWF (1:8000, Dako). […] IFN-gamma and TNF-alpha were determined in plasma using commercially available murine ELISA kits (eBioscience), according to the manufacturer's protocol.

sVCAM-1/CD106 = experiment: Soluble VCAM-1 plasma level by ELISA in PbA-infected mice; assay type: in vivo; details: C57Bl/6 mice, day 6 post-infection, p<0.05 (FIG. 19c)
Experimental: as §2

TNF-alpha = TNF-alpha plasma level by ELISA in PbA-infected mice; assay type: in vivo; details: C57Bl/6 mice, 25 mg/kg sc on Day 4 and Day 6, day 6 post-infection (FIG. 19a)
Experimental: as §2

IFN-gamma = IFN-gamma plasma level by ELISA in PbA-infected mice; assay type: in vivo; details: C57Bl/6 mice, 25 mg/kg sc on Day 4 and Day 6, day 6 post-infection (FIG. 19a)
Experimental: as §2

[4] = test system: Plasmodium berghei ANKA (PbA); experiment: Vascular permeability in lung by Evans Blue staining (malaria-associated acute lung injury); assay type: in vivo; details: C57Bl/6 mice, 15 mg/kg sc on Days 4 and 6, expected result (Example 5)
Experimental: In this Example, the effect of AngF1-Fc-F1 administration on vascular permeability in lung and malaria-associated acute lung injury in infected mice will be studied. Twenty C57Bl/6 mice will be infected with Plasmodium berghei ANKA (PbA) via an intraperitoneal injection of 1×10^6 freshly-isolated parasitized erythrocytes (PE) obtained from donor passage mice on Day 0. The infected mice will be treated with 15 mg/kg of AngF1-Fc-F1 (SEQ ID NO: 2) on Days 4, and 6 post-infection via subcutaneous injection. The mice will be monitored for survival and vascular permeability in lung by Evans Blue staining.

[5] = resistant BALB/c mice, expected result of a further experiment

B1: AngF1-Fc-F1: modified angiopoietin: fibrinogen-like domain of angiopoietin fused to Fc fragment fused to a second fibrinogen-like domain, SEQ ID NO: 2 (protein)
chain: FRDCADVYQAGFNKSGIYTIYINNMPEPKKVFCNMDVNGGGWTVIQHREDGSLDFQRGWKEYKMGFGNPSGEYWLGNEFIFAITSQRQYMLRIELMDWEGNRAYSQYDRFHIGNEKQNYRLYLKGHTGTAGKQSSLILHGADFSTKDADNDNCMCKCALMLTGGWWFDACGPSNLNGMFYTAGQNHGKLNGIKWHYFKGPSYSLRSTTMMIRPLDF[skipping human IgG1 Fc]RDCADVYQAGFNKSGIYTIYINNMPEPKKVFCNMDVNGGGWTVIQHREDGSLDFQRGWKEYKMGFGNPSGEYWLGNEFIFAITSQRQYMLRIELMDWEGNRAYSQYDRFHIGNEKQNYRLYLKGHTGTAGKQSSLILHGADFSTKDADNDNCMCKCALMLTGGWWFDACGPSNLNGMFYTAGQNHGKLNGIKWHYFKGPSYSLRSTTMMIRPLDF
[1]; C57Bl/6 mice, 25 mg/kg sc on Day 4 and Day 6 post infection (Example 3)
  survival up to at least Day 15 p.i.: more than 35%
[1]; C57Bl/6 mice, 25 mg/kg sc on Day 4 and Day 6 post infection, p<0.05, log rank test (Example 3, FIG. 14)
  survival compared to isotype control, anti-Ang2 antibody or dual blocking antibody: significantly improved survival
[1]; [5]
  survival of infected BALB/c mice: improved protection
[2]
  ECM-associated morbidity and neurological impairment (RMCBS): prevented ECM-associated morbidity and neurological impairment
[3]; C57Bl/6 mice, 25 mg/kg sc on Day 4 and Day 6, p<0.05, Kruskal-Wallis (Example 3, FIG. 16a)
  Evans Blue dye uptake in brain (blood brain barrier integrity): significantly low amount of dye uptake
[3]; [5]
  protection of blood brain barrier integrity: improved protection
sICAM-1/CD54
  circulating levels of sICAM-1 compared to PbA-infected controls: significantly reduced
sVCAM-1/CD106
  circulating levels of sVCAM-1 compared to PbA-infected controls: significantly reduced
TNF-alpha
  plasma level of TNF vs control: did not affect
IFN-gamma
  plasma level of IFNγ vs control: did not affect
[4]
  Evans Blue dye uptake in lungs (vascular permeability, acute lung injury): absence of Evans Blue dye uptake in lungs

Source: US10525106B2, “Angiopoietin-based interventions for treating cerebral malaria” (Regeneron Pharmaceuticals, Inc., priority 2013, dated 2020)
